{"source": "ChEMBL document CHEMBL4888484", "about": "“Replenishing the malaria drug discovery pipeline: Screening and hit evaluation of the MMV Hit Generation Library 1 (HGL1) against asexual blood stage Plasmodium falciparum ,using a nano luciferase reporter read-out” (2022)", "note": "Screen size: about 150,000 compounds; about 540 (0.36%) showed an effect of 50% or more. The list shows a part of the results.", "data": [{"tested_on": "Plasmodium falciparum", "test": "Primary screen in NF54 nanoGlo assay, in single point, at 2uM, 72h; a lower Z score goes with more inhibition", "format": "functional, Erythrocyte", "details": "timepoint 72 hour", "units": {"% Inhibition": "%"}, "values": [{"smiles": "Cc1ccc(Nc2ccn3c(=O)n(CC(=O)NCc4ccc(F)cc4)nc3n2)cc1", "% Inhibition": -8, "Z score": 0.83}, {"smiles": "Cc1noc(C)c1CCC(=O)N1CCCCCO1", "% Inhibition": 0, "Z score": 0.05}, {"smiles": "CC(C)OC1CCC(NC(=O)N2C[C@H](N)C3(CCC3)C2)CC1", "note": "(stereo not given in full)", "% Inhibition": 5, "Z score": -0.93}, {"smiles": "Nc1cc(N2CCC[C@@]3(CCC(=O)N(CCc4ccccc4)C3)C2)ncn1", "% Inhibition": -7, "Z score": 0.97}, {"smiles": "N[C@@H]1CCN(C(=O)c2cccc(OCc3cccc(Cl)c3)c2)C1", "% Inhibition": -1, "Z score": 0.1}, {"smiles": "CCOC(=O)Cc1csc(NC(=O)N[C@H]2CC(=O)N(c3ccc4c(c3)OCCO4)C2)n1", "% Inhibition": -7, "Z score": 1.19}, {"smiles": "CCN1CCC[C@@H]1CNC(=O)NC1CCCCC1", "% Inhibition": 0, "Z score": 0.01}, {"smiles": "COc1cncc(C(NC(=O)c2cncc(Cl)c2)[C@H]2C[C@H](O)C2)c1", "note": "(stereo not given in full)", "% Inhibition": -2, "Z score": 0.26}, {"smiles": "CC1=C(CCN2CCN(CCn3cc(C(=O)NC(C)C)nn3)CC2)C(C)(C)CCC1", "% Inhibition": 6, "Z score": -1.08}, {"smiles": "CN(c1ncc(Cl)cn1)[C@H]1CCc2ccccc21", "% Inhibition": -7, "Z score": 0.86}, {"smiles": "Cc1cnc(NC(=O)c2ccccc2F)o1", "% Inhibition": -3, "Z score": 0.26}, {"smiles": "CN(C)[C@H]1CN(c2nnc(-c3ccccc3)s2)C[C@@H]1O", "% Inhibition": -7, "Z score": 1.32}, {"smiles": "O=C(c1cnn(Cc2ccccc2)c1)N1C[C@@H]2[C@@H]3CC[C@@H](C3)[C@@H]2C1", "% Inhibition": -10, "Z score": 1.78}, {"smiles": "O=C([C@@H]1CCCN1Cc1cncn1Cc1ccccc1)N1CCOCC1", "% Inhibition": -3, "Z score": 0.7}, {"smiles": "Cc1cc2c(N[C@H]3C[C@H]4OCC[C@@H]34)ncnc2s1", "% Inhibition": 6, "Z score": -0.73}, {"smiles": "CC1CCN(c2nc(-c3ccc(C(C)C)cc3)c3c(N)n(C)nc3n2)CC1", "% Inhibition": -18, "Z score": 2.12}, {"smiles": "CCCc1nc(C)cc(N(C)CCn2ccnc2)n1", "% Inhibition": -4, "Z score": 0.74}, {"smiles": "C[C@@H](C(=O)N(Cc1ccncc1)C1CC1)c1ccccc1", "% Inhibition": 8, "Z score": -0.89}, {"smiles": "CCCn1ncc(NC(=O)Cn2ccc(-c3nccnc3C)n2)n1", "% Inhibition": -16, "Z score": 1.66}, {"smiles": "COc1cc(C)nc(N2CCO[C@H](c3nccs3)C2)n1", "% Inhibition": -4, "Z score": 0.45}, {"smiles": "COc1cccnc1-c1cccc(C(=O)N(CCO)Cc2nccn2C)c1", "% Inhibition": -15, "Z score": 1.73}, {"smiles": "COc1cccc(CN2CCC[C@H](c3cc4n(n3)CCCNC4=O)C2)n1", "% Inhibition": -12, "Z score": 2.2}, {"smiles": "CCNC(=O)Cn1ccc(Nc2ccc3nccnc3n2)n1", "% Inhibition": 1, "Z score": -0.15}, {"smiles": "C[C@H](Nc1ccc(C(F)(F)F)cn1)c1ccncc1", "% Inhibition": -14, "Z score": 1.95}, {"smiles": "CCNC(=O)[C@H](C)NC(=O)c1cc(C)ccc1O", "% Inhibition": -8, "Z score": 1.5}, {"smiles": "c1ccc(C(Cc2noc([C@H]3CCOC3)n2)c2ccccc2)cc1", "% Inhibition": 5, "Z score": -0.92}, {"smiles": "Cc1ccc(Cn2ccc(NC(=O)c3noc4c3CCc3ccccc3-4)n2)cc1", "% Inhibition": -16, "Z score": 1.77}, {"smiles": "Cn1nccc1CS(=O)(=O)Cc1csc(-c2ccoc2)n1", "% Inhibition": 1, "Z score": -0.12}, {"smiles": "Cc1oc(CNC(=O)c2cccc(F)c2)nc1C(=O)N1CCCC1", "% Inhibition": -11, "Z score": 1.48}, {"smiles": "C[C@@H](c1ccc(F)c(F)c1)N(C)C(=O)C1=NN(c2ccccc2)C(=O)CC1", "% Inhibition": -8, "Z score": 1.06}, {"smiles": "CN(C(=O)c1ccco1)[C@@H](Cc1ccccc1Cl)C1CCN(Cc2ccccn2)CC1", "% Inhibition": -17, "Z score": 2.18}, {"smiles": "O=C(c1ccc(F)cc1Cl)N1CC(N2C(=O)CCC2=O)C1", "% Inhibition": 2, "Z score": -0.25}, {"smiles": "COCC(=O)Nc1cc(NC(=O)CCc2scnc2C)ccc1OC", "% Inhibition": -12, "Z score": 2.38}, {"smiles": "Cc1ccc(C)c(NC(=O)NCc2ccoc2)c1", "% Inhibition": -11, "Z score": 1.08}, {"smiles": "OCCc1cnn(Cc2csc(C3CCCCC3)n2)c1", "% Inhibition": -8, "Z score": 1.14}, {"smiles": "COc1cccc(-c2cn3c(n2)N(C(=O)Cn2ccnc2C)CCC3)c1", "% Inhibition": -7, "Z score": 1.19}, {"smiles": "CCC1(O)CN(C(=O)[C@]2(C)CCCNC2=O)C1", "% Inhibition": 0, "Z score": 0}, {"smiles": "C=CCn1cc(CN2CCC[C@@]3(CCN(C(=O)c4cccc(C#N)c4)C3)C2)cn1", "% Inhibition": 3, "Z score": -0.31}, {"smiles": "COCCn1cnc2cc(NC(=O)C3CCCCC3)cc(C(=O)N(Cc3ccccc3)CC3CC3)c21", "% Inhibition": -10, "Z score": 1.76}, {"smiles": "COC[C@@]12CN(C(C)=O)CC[C@@H]1CN(C(=O)Cc1ccsc1)C2", "% Inhibition": -10, "Z score": 1.21}, {"smiles": "COc1cc(CN(C)Cc2ncccc2C)ccc1OC[C@@H](O)CN1CCOCC1", "% Inhibition": -8, "Z score": 1.27}, {"smiles": "CC(C)c1ccc(O)c(C(=O)N2CCC(C(=O)NC3CC3)CC2)c1", "% Inhibition": 2, "Z score": -0.19}, {"smiles": "COc1cccc(N2C(=O)c3cc(C)nn3C[C@@]2(C)C(=O)NCc2ccc(Cl)cc2)c1", "% Inhibition": -8, "Z score": 1.22}, {"smiles": "N#Cc1nccnc1O[C@H]1CCCN(C(=O)NCc2ccc(Cl)cc2)C1", "% Inhibition": -10, "Z score": 1.77}, {"smiles": "CN(Cc1ccc2c(c1)OCO2)C(=O)c1cn(C)nc1-c1cnn(C)c1", "% Inhibition": -13, "Z score": 2.2}, {"smiles": "CCOc1ccccc1NCC(=O)NC(C1CC1)C1CC1", "% Inhibition": 1, "Z score": -0.15}, {"smiles": "CCc1nc(C)c(C(=O)N2CC[C@@H]3OCc4cccc(c4)Oc4cccc(c4)CC(=O)N(CC)CC(=O)N[C@H]3C2)o1", "% Inhibition": -3, "Z score": 0.42}, {"smiles": "Cc1cc(C)nc(CCNCc2c(C(=O)N(C)C)nc3ccc(Cl)cn23)n1", "% Inhibition": -8, "Z score": 1.48}, {"smiles": "CCn1nccc1C(=O)N1CC[C@H](n2c(=O)n(C)c3cccnc32)C1", "% Inhibition": -2, "Z score": 0.3}, {"smiles": "CC(C)Cc1n[nH]c(-c2cccc(-c3cn[nH]c3)c2)n1", "% Inhibition": -15, "Z score": 2.6}, {"smiles": "Cc1cc(C)n2nc(C(=O)N3CCC(n4c(=O)[nH]c5ccc(F)cc5c4=O)CC3)nc2n1", "% Inhibition": -7, "Z score": 1.27}, {"smiles": "COc1cc(NC(C)=O)c(Cl)cc1C(=O)Nc1nnc(CCCc2ccccc2)s1", "% Inhibition": 9, "Z score": -1.16}, {"smiles": "Cc1cc(NC(=O)NC2CCCC2)n(C)n1", "% Inhibition": -1, "Z score": 0.12}, {"smiles": "COCCCN(C)C(=O)Nc1c(C)cc(Br)cc1OC", "% Inhibition": 1, "Z score": -0.11}, {"smiles": "COc1ccc2c(c1)C(=O)N(Cc1ccccc1)C(=O)C2(C)C", "% Inhibition": -10, "Z score": 1.06}, {"smiles": "Cc1cc(N2CCN(C(=O)Nc3cccc4c3CCC4)CC2)nc(N)n1", "% Inhibition": -3, "Z score": 0.38}, {"smiles": "CCc1nnc(NC(=O)COc2ccc3c(c2)OCO3)s1", "% Inhibition": -11, "Z score": 1.99}, {"smiles": "CC1CC(C)CN(C(=O)NCCS(=O)(=O)C(C)(C)C)C1", "note": "(stereo not given)", "% Inhibition": -6, "Z score": 0.9}, {"smiles": "O=C(NCc1ccc2nsnc2c1)N1CCC(F)(F)CC1", "% Inhibition": -12, "Z score": 2.24}, {"smiles": "Cc1ncc(CO)c(CN2CC[C@](C)(O)[C@H](CC(C)C)C2)c1O", "% Inhibition": 1, "Z score": -0.13}, {"smiles": "COc1cccc2c1CCc1c(C(=O)NCCc3ccncc3)n[nH]c1-2", "% Inhibition": 4, "Z score": -0.55}, {"smiles": "c1ccc(OCCn2nnnc2N2CCCC2)cc1", "% Inhibition": 4, "Z score": -0.76}, {"smiles": "C#CCNC(=O)c1ccc(Br)cc1C", "% Inhibition": 5, "Z score": -0.69}, {"smiles": "COc1cc2ccccc2cc1C(=O)N1CCc2ccccc2C1", "% Inhibition": -7, "Z score": 1.03}, {"smiles": "CC(C)N1CC[C@H](CN(C)C(=O)c2csnc2N)C1", "% Inhibition": -14, "Z score": 1.94}, {"smiles": "COc1cccc(-n2ccc3c(nnc4ncnn43)c2=O)c1", "% Inhibition": -8, "Z score": 1.18}, {"smiles": "N[C@H]1CCN(C(=O)c2csc3ccccc23)C1", "% Inhibition": -2, "Z score": 0.45}, {"smiles": "CN(C)C(=O)CN1CCC[C@H](CNC(=O)c2ccoc2)C1", "% Inhibition": 5, "Z score": -0.66}, {"smiles": "CN(C)c1nccnc1NCCCc1nnc2ccccn12", "% Inhibition": -6, "Z score": 1.2}, {"smiles": "C[C@@H](Cc1nc(CC(N)=O)nn1C(C)(C)C)N1CCOCC1", "% Inhibition": -6, "Z score": 1.16}, {"smiles": "O=C(CCN1C(=O)CCC1=O)N1CCCN(c2nc3ccccc3[nH]2)CC1", "% Inhibition": -2, "Z score": 0.24}, {"smiles": "Cc1c(C(=O)N(C)C2CCN(C)CC2)cnn1-c1nccc(-c2cc3ccccc3o2)n1", "% Inhibition": -4, "Z score": 0.55}, {"smiles": "O=C(CC1CC(F)(F)C1)Nc1ccccn1", "% Inhibition": 4, "Z score": -0.57}, {"smiles": "Cc1ccc(N(C)S(=O)(=O)c2ccccc2-c2nc(-c3ccccc3)no2)cc1C", "% Inhibition": -13, "Z score": 1.48}, {"smiles": "CC(C)NC(=O)N1CCN(c2nc(C3CCCCC3)nc3c2cnn3-c2ccccc2Cl)CC1", "% Inhibition": -4, "Z score": 0.39}, {"smiles": "COc1ccc(NC(=O)N2CCC3(C=Cc4ccccc43)CC2)cn1", "% Inhibition": -13, "Z score": 2.58}, {"smiles": "Cc1cccc([C@@H](NC(=O)CC2OCCCO2)C(F)(F)F)c1", "% Inhibition": 3, "Z score": -0.38}, {"smiles": "COc1ccc(CN2CCN(C3CCC3)C[C@@H]2CCO)c(F)c1", "% Inhibition": -14, "Z score": 1.26}, {"smiles": "CCCc1csc(NC(=O)N2CCOC3(CCC3)C2)n1", "% Inhibition": 1, "Z score": -0.16}, {"smiles": "CN(C)C(=O)N(CCNS(=O)(=O)c1ccccc1)C1CCOCC1", "% Inhibition": -4, "Z score": 0.71}, {"smiles": "O=C(NCc1ccc(Cl)s1)N[C@H]1CC[C@@H](CO)C1", "% Inhibition": 1, "Z score": -0.26}, {"smiles": "N#Cc1cnc(NC2CCCCC2)nc1N", "% Inhibition": -13, "Z score": 1.54}, {"smiles": "Cc1ccc(C)c2sc(NC(=O)C(CC(C)C)N3C(=O)C4CC=CCC4C3=O)nc12", "note": "(stereo not given)", "% Inhibition": 18, "Z score": -2.27}, {"smiles": "COC(=O)COc1cc(-c2ccc(Cl)cc2)nc2ccc(NC(=O)Cc3ccccc3)cc12", "% Inhibition": -9, "Z score": 1.57}, {"smiles": "COc1ccc2c(n1)N(C(=O)OC(C)(C)C)[C@H](C(=O)O)C2", "% Inhibition": -4, "Z score": 0.67}]}]}
